The other results are listed elsewhere or left out. Further columns of the screen follow, without active or inactive calls.
Legend:
Assay in all cases: Primary Screen for Target Class Profiling of Small Molecule Inhibitors of Methyltransferases
[1] = molecular target: Glycine N-methyltransferase (Homo sapiens) (UniProt Q14749); details: purified enzyme, MTase-Glo SAH luminescence; measured here: GNMT inhibition; at 40 µM; stronger effect = lower value
Text: (§1) PI: Matthew D. Hall Ph.D. and Quinlin M. Hanson Ph.D.
(§2) National Center for Advancing Translational Sciences (NCATS)
(§3) National Institute of Health (NIH), Rockville, MD
(§4) Target class profiling (TCP) is a chemical biology approach amenable to investigating understudied biological targets. TCP is achieved by developing a generalizable assay platform and applying it to screen a curated set of compound libraries against representative members of a target class. Small molecule methyltransferases (SMMTase) are a subclass of methyltransferase that act on metabolites to modulate signaling pathways, metabolize xenobiotics, or balance the available methyl pool. We screened four curated libraries totaling 27,574 unique compounds against the SMMTases nicotinamide N-methyltransferase (NNMT), phenylethanolamine N-methyltransferase (PNMT), histamine N-methyltransferase (HNMT), glycine N-methyltransferase (GNMT), catechol O-methyltransferase (COMT), and guanidinoacetate N-methyltransferase (GAMT). The data generated by this TCP can be leveraged for informed tool molecule development. For example, in the associated publication we identified a chemotype of HNMT-selective inhibitors. Additionally, we identified a putative SMMTase-selective inhibitor with potential as a tool molecule for studying broader methyltransferase biology.
(§5) High-through put screening assays were developed at the National Center for Advancing Translational Science (NCATS) for the enzymes NNMT, PNMT, HNMT, GNMT, COMT, and GAMT. Enzymatic activity was measured as a function of SAM cofactor conversion using the MTase Glo kit (Promega) for all enzymes. All assays were performed in 1536-well format with substrates and SAM concentrations at KM values. Enzyme concentration and assay timing were optimized for 10-20% SAM conversion. Initial screening of 27,574 compounds was done as single-point assays using the highest compound concentration (40 uM). […] These compounds were replated in 11-point dose response and assayed against NNMT, PNMT, HNMT, GNMT, COMT, GAMT, and a counter-assay. The IC50 and efficacy (maximal response) values were determined for each dose-response curve. These values are also accounted for in the area under the curve (AUC) values.
(§6) PROTOCOL TABLE (as described by Inglese J, Shamu CE and Guy RK. 2007)
(§7) SEQUENCE No. (e.g., 1, 2, 3, etc.); […] (e.g., Cells, Incubation, Reagent, etc.); VALUE; DESCRIPTION.
(§8) 1; Reagent; 2 uL; SMMTase Enzyme (2x) in reaction buffer, columns 1- 48.
(§9) 2; Reagent; 1 uL; SAM (4x) in reaction buffer, columns 1-48.
(§10) 3; Controls; 23 nL; DMSO in column 4; sinefungin in DMSO (0 uM - 40 uM) in 7-point 1:2 dilution series (n = 2) in column 2.
(§11) 4; Compounds; 23 nL; Columns 5-48.
(§12) 5; Reagent; 1 uL; Substrate (4x) in reaction buffer, columns 2-48.
(§13) 6; Time; 20-30 min; Incubation.
(§14) 7; Reagent; 1 uL; MTase-Glo reagent (5X), columns 1-48.
(§15) 8; Time; 30 min; Incubation.
(§16) 9; Reagent; 5 uL; MTase-Glo Detection reagent, columns 1-48.
(§17) 10; Time; 30 min; Incubation, luminescence evolution.
(§18) 11; Detection; Luminescence; ViewLux uHTS Microplate Imager (PerkinElmer).
(§19) NOTES (numbers refer to Sequence numbers above)
(§20) 1, 2, 5. White Medium Binding Greiner 1536-well plates (Cat #789175-F, Greiner Bio-One, Monroe, NC); Reaction buffer: 50 mM Tris, pH 8.0, 3 mM MgCl2, 1 mM EDTA, 50 mM NaCl, 1 mM DTT, and 0.1 mg/mL BSA. Evaporation was prevented by covering assay plates with metal lids containing holes to allow gas diffusion.
(§21) 1. Six SMMTase were profiled: HNMT, GNMT, PNMT, COMT, NNMT, GAMT
(§22) 5. The corresponding substrate was used for each enzyme: HNMT - 5.3 uM Histamine; GNMT - >500 uM Glycine; PNMT - 16.2 uM Norephinephrine; COMT - 13.7 uM Norephinephrine; NNMT - 3.8 uM Nicotinamide; GAMT - 2.5 uM Guanidinoacetate.6, 8, 10. Room temperature
(§23) 6. Final reaction conditions: 10 nM COMT, 5 uM SAM, 15 uM norepinephrine, 50 mM Tris, pH 8.0, 3 mM MgCl2, 1 mM EDTA, 50 mM NaCl, 1 mM DTT, and 0.1 mg/mL BSA; refer to tables 2 and S1 for specific timing.
8. […]

[2] = molecular target: Guanidinoacetate N-methyltransferase (Homo sapiens) (UniProt Q14353); details: purified enzyme, MTase-Glo SAH luminescence; measured here: GAMT inhibition; at 40 µM; stronger effect = lower value
Text: as §1, §2, §3, §4, §5, §6, §7, §8, §9, §10, §11, §12, §13, §14, §15, §16, §17, §18, §19, §20, §21, §22, §23
8. […]

[3] = molecular target: Histamine N-methyltransferase (Homo sapiens) (UniProt P50135); details: purified enzyme, MTase-Glo SAH luminescence; measured here: HNMT inhibition; at 40 µM; stronger effect = lower value
Text: as §1, §2, §3, §4, §5, §6, §7, §8, §9, §10, §11, §12, §13, §14, §15, §16, §17, §18, §19, §20, §21, §22, §23
8. […]

[4] = molecular target: Nicotinamide N-methyltransferase (Homo sapiens) (UniProt P40261); details: purified enzyme, MTase-Glo SAH luminescence; measured here: NNMT inhibition; at 40 µM; stronger effect = lower value
Text: as §1, §2, §3, §4, §5, §6, §7, §8, §9, §10, §11, §12, §13, §14, §15, §16, §17, §18, §19, §20, §21, §22, §23
8. […]

[5] = molecular target: Phenylethanolamine N-methyltransferase (Homo sapiens) (UniProt P11086); details: purified enzyme, MTase-Glo SAH luminescence; measured here: PNMT inhibition; at 40 µM; stronger effect = lower value
Text: as §1, §2, §3, §4, §5, §6, §7, §8, §9, §10, §11, §12, §13, §14, §15, §16, §17, §18, §19, §20, §21, §22, §23
8. […]
% is set by controls: 0 for no effect and ±100 for the full control effect.

Q: `CCC1=C(C)CN(C(=O)NCCc2ccc(S(=O)(=O)NC(=O)NC3CCC(C)CC3)cc2)C1=O` (stereo not given) was tested. Which activity change, negative = inhibition [1] did it give?
A: 4.61%

Q: And the activity change, negative = inhibition [2]?
A: -4.05%

Q: And the activity change, negative = inhibition [3]?
A: 4.32%

Q: And the activity change, negative = inhibition [4]?
A: -20.7%

Q: What about the activity change, negative = inhibition [5] of the same compound?
A: -7.37%

Q: How did the activity change, negative = inhibition [1] turn out when `OC/C=C/c1ccc(O[C@@H]2O[C@H](CO)[C@@H](O)[C@H](O)[C@H]2O)cc1` was run?
A: 0%

Q: And the activity change, negative = inhibition [2]?
A: -5.7%

Q: What about the activity change, negative = inhibition [3] of the same compound?
A: 5.45%

Q: What about the activity change, negative = inhibition [4] of the same compound?
A: -18.6%

Q: And the activity change, negative = inhibition [5]?
A: -15%

Q: Which results are given for `CC1CCCCC1NC(=O)C1(C)Cn2c(nc3ccccc32)C(=O)N1Cc1ccco1` (stereo not given)?
A: activity change, negative = inhibition [1]: -10.2%; activity change, negative = inhibition [2]: 0.174%; activity change, negative = inhibition [3]: -4.07%; activity change, negative = inhibition [4]: -14.4%; activity change, negative = inhibition [5]: -3.23%

Q: With `Cc1[nH]cnc1C1CCN(c2nc3cccc4c3n2CCC4=O)CC1` as the compound, how does the activity change, negative = inhibition [1] read?
A: -2.6%

Q: And the activity change, negative = inhibition [2]?
A: 7.1%

Q: What about the activity change, negative = inhibition [3] of the same compound?
A: -50.1%

Q: And the activity change, negative = inhibition [4]?
A: -20.8%

Q: And the activity change, negative = inhibition [5]?
A: 3.61%

Q: With `CCC(C)NC(=O)c1ccc2c(=O)n(C)c3nn(CC(=O)c4ccc(F)cc4)c(=O)n3c2c1` (stereo not given) as the compound, how does the activity change, negative = inhibition [1] read?
A: 4.08%

Q: What about the activity change, negative = inhibition [2] of the same compound?
A: 0.375%

Q: And the activity change, negative = inhibition [3]?
A: 5.39%

Q: What about the activity change, negative = inhibition [4] of the same compound?
A: 3.34%

Q: And the activity change, negative = inhibition [5]?
A: 6.08%

Q: For `CC(C)c1cc(C(=O)N2C[C@@H](C)[C@](O)(C3CC3)C2)nc2ncnn12`, which activity change, negative = inhibition [1] is on record?
A: -0.506%

Q: And the activity change, negative = inhibition [2]?
A: -2.88%

Q: What about the activity change, negative = inhibition [3] of the same compound?
A: 1%

Q: What about the activity change, negative = inhibition [4] of the same compound?
A: 4.71%

Q: What about the activity change, negative = inhibition [5] of the same compound?
A: -1.4%

Q: `COc1ccc(-c2cc3n(n2)CC(C)(C(=O)NCc2ccccc2OC)N(c2cc(C)cc(C)c2)C3=O)cc1` (stereo not given) was tested. Which activity change, negative = inhibition [1] did it give?
A: 2.72%

Q: What about the activity change, negative = inhibition [2] of the same compound?
A: 5.35%

Q: And the activity change, negative = inhibition [3]?
A: 0.366%

Q: What about the activity change, negative = inhibition [4] of the same compound?
A: 0.447%

Q: And the activity change, negative = inhibition [5]?
A: -3.5%

Q: Which results are given for `CCCCC(=O)N1c2ccccc2NC2=C(C(=O)CCC2)C1c1ccccc1Cl` (stereo not given)?
A: activity change, negative = inhibition [1]: -29.8%; activity change, negative = inhibition [2]: 6.28%; activity change, negative = inhibition [3]: 6%; activity change, negative = inhibition [4]: -22.2%; activity change, negative = inhibition [5]: -2.96%

Q: `CCC(O)C(C)C1CCC(C(C)C(=O)O)O1` (stereo not given) was tested. Which activity change, negative = inhibition [1] did it give?
A: -2.89%

Q: What about the activity change, negative = inhibition [2] of the same compound?
A: -4.81%

Q: And the activity change, negative = inhibition [3]?
A: 4.33%

Q: And the activity change, negative = inhibition [4]?
A: -12.6%

Q: What about the activity change, negative = inhibition [5] of the same compound?
A: -10.8%

Q: `Cc1ccc(N2CCN(CCC3NC(=O)c4ccccc43)CC2)cc1C` (stereo not given) was tested. Which activity change, negative = inhibition [1] did it give?
A: 0.251%

Q: What about the activity change, negative = inhibition [2] of the same compound?
A: -5.24%

Q: What about the activity change, negative = inhibition [3] of the same compound?
A: -0.376%

Q: What about the activity change, negative = inhibition [4] of the same compound?
A: -15.8%

Q: What about the activity change, negative = inhibition [5] of the same compound?
A: -9.34%

Q: Which activity change, negative = inhibition [1] does the source give for `CC(=O)Nc1c2n(c3ccc(F)cc13)CC(C)(C(=O)NC1CCCC1)N(Cc1ccccc1C)C2=O` (stereo not given) here?
A: -3.13%

Q: And the activity change, negative = inhibition [2]?
A: 1.64%

Q: And the activity change, negative = inhibition [3]?
A: -4.45%

Q: What about the activity change, negative = inhibition [4] of the same compound?
A: -2.69%

Q: And the activity change, negative = inhibition [5]?
A: -6.96%

Q: For `COc1cccc(CN2C(=O)c3cc4sccc4n3CC2(C)C(=O)NC2CCCCC2C)c1` (stereo not given), which activity change, negative = inhibition [1] is on record?
A: 1.84%

Q: And the activity change, negative = inhibition [2]?
A: 0%

Q: What about the activity change, negative = inhibition [3] of the same compound?
A: 6.57%

Q: And the activity change, negative = inhibition [4]?
A: -8.98%

Q: What about the activity change, negative = inhibition [5] of the same compound?
A: -1.03%

Q: With `CC1CCN(S(=O)(=O)c2ccc3c(c2)oc(=O)n3CC(=O)N2CCN(c3ccccc3F)CC2)CC1` as the compound, how does the activity change, negative = inhibition [1] read?
A: -7.97%

Q: And the activity change, negative = inhibition [2]?
A: 0.101%

Q: And the activity change, negative = inhibition [3]?
A: -9.18%

Q: What about the activity change, negative = inhibition [4] of the same compound?
A: -12.2%

Q: What about the activity change, negative = inhibition [5] of the same compound?
A: -7.07%

Q: Which results are given for `O=S(=O)(Nc1ccccc1N1CCCCC1)c1ccc(Cl)s1`?
A: activity change, negative = inhibition [1]: -0.372%; activity change, negative = inhibition [2]: 1.1%; activity change, negative = inhibition [3]: 2.2%; activity change, negative = inhibition [4]: -1.46%; activity change, negative = inhibition [5]: -3.49%

Q: Which activity change, negative = inhibition [1] does the source give for `O=C(Nc1cc(C2CC2)nn1-c1ccccc1)c1ccc(C(F)(F)F)cc1` here?
A: -7.7%

Q: What about the activity change, negative = inhibition [2] of the same compound?
A: -7.75%

Q: And the activity change, negative = inhibition [3]?
A: -3.14%

Q: And the activity change, negative = inhibition [4]?
A: -10.6%

Q: What about the activity change, negative = inhibition [5] of the same compound?
A: -4.9%

From PubChem BioAssay AID1745853 (National Center for Advancing Translational Sciences (NCATS), 2022)
